Test results from the supplement of paper PMC8728848.
Some of the results follow.

What was measured:
Assay in all cases: glycan array binding signal (z-score within array); higher = stronger binding
Conditions in all cases: glycan notation: IUPAC condensed, linker removed
[1] = target: Neu5Ac(a2-6)GlcNAc(b1-4)GlcNAc(b1-4)GlcNAc
Outline: (§1)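 The binding signal is a Z-score computed within each array. Data were drawn from 3228 arrays in the Consortium for Functional Glycomics database, restricted to those with a known protein sequence. Scores were averaged over arrays of the same protein sequence at different concentrations or buffers, and over linkers, and negative values can be taken as non-binding.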

Neu5Ac(a2-8)Neu5Ac = target: Neu5Ac(a2-8)Neu5Ac
Outline: as §1

[2] = target: Neu5Ac(a2-8)Neu5Ac(a2-3)Gal(b1-3)GalNAc(b1-4)[Neu5Ac(a2-3)]Gal(b1-4)Glc
Outline: as §1

[3] = target: Neu5Ac(a2-8)Neu5Ac(a2-3)Gal(b1-3)GalNAc(b1-4)[Neu5Ac(a2-8)Neu5Ac(a2-3)]Gal(b1-4)Glc
Outline: as §1

[4] = target: Neu5Ac(a2-8)Neu5Ac(a2-3)Gal(b1-4)Glc
Outline: as §1

[5] = target: Neu5Ac(a2-8)Neu5Ac(a2-3)Gal(b1-4)GlcNAc
Outline: as §1

[6] = target: Neu5Ac(a2-8)Neu5Ac(a2-3)[Gal(b1-3)GalNAc(b1-4)]Gal(b1-4)Glc
Outline: as §1

[7] = target: Neu5Ac(a2-8)Neu5Ac(a2-3)[GalNAc(b1-4)]Gal(b1-4)Glc
Outline: as §1

[8] = target: Neu5Ac(a2-8)Neu5Ac(a2-8)Neu5Ac
Outline: as §1

[9] = target: Neu5Ac(a2-8)Neu5Ac(a2-8)Neu5Ac(a2-3)Gal(b1-4)Glc
Outline: as §1

[10] = target: Neu5Ac(a2-8)Neu5Ac(a2-8)Neu5Ac(a2-3)[Gal(b1-3)GalNAc(b1-4)]Gal(b1-4)Glc
Outline: as §1

[11] = target: Neu5Ac(a2-8)Neu5Ac(a2-8)Neu5Ac(a2-3)[GalNAc(b1-4)]Gal(b1-4)Glc
Outline: as §1

[12] = target: Neu5Ac(a2-8)Neu5Ac(a2-8)Neu5Ac(a2-8)Neu5Ac(a2-3)[GalNAc(b1-4)]Gal(b1-4)Glc
Outline: as §1

[13] = target: Neu5Ac(a2-8)Neu5Gc(a2-3)Gal(b1-4)GlcNAc
Outline: as §1

[14] = target: Neu5Ac(b2-6)Gal(b1-4)GlcNAc
Outline: as §1

Neu5Ac(b2-6)GalNAc = target: Neu5Ac(b2-6)GalNAc
Outline: as §1

[15] = target: Neu5Ac9Ac(a2-3)Gal(b1-4)GlcNAc
Outline: as §1

[16] = target: Neu5Ac9Ac(a2-6)Gal(b1-4)GlcNAc
Outline: as §1

[17] = target: Neu5Gc(a2-3)Gal(b1-3)GlcNAc
Outline: as §1

[18] = target: Neu5Gc(a2-3)Gal(b1-3)[Fuc(a1-4)]GlcNAc
Outline: as §1

Neu5Gc(a2-3)Gal(b1-4)Glc = target: Neu5Gc(a2-3)Gal(b1-4)Glc
Outline: as §1

[19] = target: Neu5Gc(a2-3)Gal(b1-4)GlcNAc
Outline: as §1

[20] = target: Neu5Gc(a2-3)Gal(b1-4)GlcNAc(b1-3)Gal(b1-4)GlcNAc(b1-2)Man(a1-3)[Neu5Gc(a2-3)Gal(b1-4)GlcNAc(b1-3)Gal(b1-4)GlcNAc(b1-2)Man(a1-6)]Man(b1-4)GlcNAc(b1-4)GlcNAc
Outline: as §1

[21] = target: Neu5Gc(a2-3)Gal(b1-4)[Fuc(a1-3)]GlcNAc
Outline: as §1

[22] = target: Neu5Gc(a2-6)Gal(b1-4)GlcNAc
Outline: as §1

Neu5Gc(a2-6)GalNAc = target: Neu5Gc(a2-6)GalNAc
Outline: as §1

[23] = target: Neu5Gc(a2-8)Neu5Ac(a2-3)Gal(b1-4)GlcNAc
Outline: as §1

[24] = target: Neu5Gc(a2-8)Neu5Gc(a2-3)Gal(b1-4)GlcNAc
Outline: as §1

[25] = target: Neu5Gc(a2-8)Neu5Gc(a2-3)Gal(b1-4)GlcNAc(b1-3)Gal(b1-4)GlcNAc
Outline: as §1

[26] = target: Neu5Gc(a2-8)Neu5Gc(a2-6)Gal(b1-4)GlcNAc
Outline: as §1

[27] = target: Neu5Gc(b2-6)Gal(b1-4)GlcNAc
Outline: as §1

B1: CBM13 2a (Mycobacterium tuberculosum), P64849 (protein)
chain: DGPVQLKSRLGDVCLDAPSGSWFSPLVINPCNGTDFQRWNLTDDRQVESVAFPGECVNIGNALWARLQPCVNWISQHWTVQPDGLVKSDLDACLTVLGGPDPGTWVSTRWCDPNAPDQQWDSVPLEHHHHHH
- glycan array binding signal (z-score) [1]: -0.314
- glycan array binding signal (z-score) (Neu5Ac(a2-8)Neu5Ac): -0.302
- glycan array binding signal (z-score) [2]: 0.01
- glycan array binding signal (z-score) [3]: -0.313
- glycan array binding signal (z-score) [4]: -0.117
- glycan array binding signal (z-score) [5]: -0.278
- glycan array binding signal (z-score) [6]: -0.141
- glycan array binding signal (z-score) [7]: -0.14
- glycan array binding signal (z-score) [8]: -0.237
- glycan array binding signal (z-score) [9]: -0.224
- glycan array binding signal (z-score) [10]: -0.242
- glycan array binding signal (z-score) [11]: 1.39
- glycan array binding signal (z-score) [12]: 0.108
- glycan array binding signal (z-score) [13]: -0.117
- glycan array binding signal (z-score) [14]: -0.193
- glycan array binding signal (z-score) (Neu5Ac(b2-6)GalNAc): -0.347
- glycan array binding signal (z-score) [15]: 0.861
- glycan array binding signal (z-score) [16]: 0.017
- glycan array binding signal (z-score) [17]: -0.266
- glycan array binding signal (z-score) [18]: -0.248
- glycan array binding signal (z-score) (Neu5Gc(a2-3)Gal(b1-4)Glc): -0.166
- glycan array binding signal (z-score) [19]: -0.274
- glycan array binding signal (z-score) [20]: -0.071
- glycan array binding signal (z-score) [21]: -0.351
- glycan array binding signal (z-score) [22]: 0.014
- glycan array binding signal (z-score) (Neu5Gc(a2-6)GalNAc): -0.286
- glycan array binding signal (z-score) [23]: -0.174
- glycan array binding signal (z-score) [24]: -0.233
- glycan array binding signal (z-score) [25]: 0.24
- glycan array binding signal (z-score) [26]: -0.247
- glycan array binding signal (z-score) [27]: -0.306
